# In PubChem BioAssay AID328 (DTP/NCI, 2004):
# Inconclusive results and toxic doses are left out. The source holds more than one record for some entries. The list is limited to them. An entry can have further records. Values given together are repeats in other runs, samples, wells, individuals or studies.
# Legend:
# [1] = system: BDF1 mice, P388 leukemia ip; experiment: NCI In Vivo Anticancer Drug Screen. Data for tumor model P388 Leukemia (intraperitoneal) in B6D2F1 (BDF1) mice; conditions: endpoint: mean survival time; dose: 0.75 mg/kg/injection; schedule: Q01DX010 (ip); vehicle: saline; higher = longer survival
# In short: (§1)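 Transplantable tumour in mice; compound vs vehicle dosing; survival scored; ratio of treated to control reported.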
# [2] = system: BDF1 mice, P388 leukemia ip, median survival T/C; experiment: as above; conditions: endpoint: median survival time, higher = longer survival
# In short: as §1
compound,measurement,setting,value
CCC1(O)CC(OC2CC(N(C)C)C(OC3CC4OC5CC(=O)C(C)OC5OC4C(C)O3)C(C)O2)c2c(cc3c(c2O)C(=O)c2c(O)ccc(O)c2C3=O)C1C(=O)OC (centres undefined),T/C,[1],86 % of control and 188 % of control
Cc1c2ccncc2c(C)c2c1[nH]c1ccccc12,T/C,"[2]; dose: 60.0 mg/kg/injection, schedule: Q04DX003 (ip), vehicle: water","86 % of control, 91 % of control, 158 % of control"
N[C@@H](Cc1ccc(N(CCCl)CCCl)cc1)C(=O)O,T/C,"[2]; dose: 16.7 mg/kg/injection, schedule: Q01DX001 (ip), vehicle: saline",98 % of control and 172 % of control
same,T/C,"[2]; dose: 30.0 mg/kg/injection, schedule: Q01DX001 (ip), vehicle: Klucel (hydroxypropylcellulose) (HPC)",84 % of control and 163 % of control
